Data taken from patent US20050059584A1, “Novel chemokine mimetics synthesis and their use” (priority 2002, published 2005).
Positions of bridges follow the written chain, without caps; N, C: chain ends. No end group written: not given here.

Legend:
[1] = stability in human plasma (Table 3); type: in vitro ADME; details: 37° C
Description: This example illustrates the stability of SDF-1 chemokine analogs (as represented by Compound A (SEQ ID NO:809) and Compound B (SEQ ID NO:810)) in human plasma.
Fresh blood was collected into heparinized tubes and spun down at room temperature for 15 minutes at 1500 g, and the plasma was removed and placed in another tube. The plasma was then cooled to 4° C. by incubation on ice, and centrifuged for 15 minutes at 1500 g at 4° C. The plasma was recovered and used immediately and the leftover was frozen at −20° C.
Fractions of 0.5 ml of human plasma were aliquoted in eppendorf tubes and incubated in a heated bath at 37° C. A quantity of 200 μg of Compound B (SEQ ID NO:810) or Compound A (SEQ ID NO:809) in water (10 μg/μL in water) was added subsequently to each fraction and incubated for T=0, 5, 10, 20, 30, 60, 120, 240, 360 and 420 minutes. At the end of the incubation, the fractions were quenched by the addition of 0.20 ml 1M trifluoroacetic acid (TFA) and the tubes agitated gently and kept on ice for 10 minutes. The tubes were then diluted further with 200 μL of a 0.05% solution of TFA.
The samples were then centrifuged at 5000 rpm for 45 min at 4° C. The supernatants were extracted on solid phase.
Sep-pak C 18 cartridges (VWR #BJ9000, 100 mg, 1 ml, octadecyl column C18)) were preconditioned with 80% acetonitrile/0.1% TFA (5×1 ml) followed by TFA 0.05% (5×1 ml). The quenched (acidified) plasma samples were aspirated and applied to the column, and washed with 2×1 ml of TFA 0.05% (eluate discarded) followed by extraction with 5×1 ml of (80% acetonitrile/0.1% TFA). The samples were then frozen and lyophilized.
Dry residue was resuspended in 200 μL of (20% acetonitrile/0.1% TFA) and spun down in a centrifuge to clarify the sample by centrifugation at 5000 rpm for 15 minutes at 22° C. before loading 50 μL on HPLC.
HPLC analysis was performed on the Gilson using the following column, mobile phase, and detection systems.

[2] = test system: Primitive Erythroid bone marrow progenitor cells; assay: 3H-thymidine killing of primitive erythroid bone marrow progenitor cells; type: cell-based, human; details: Table 5, no drug 47 +/− 4
[3] = test system: Primitive Granulocyte bone marrow progenitor cells; assay: 3H-thymidine killing of primitive granulocyte bone marrow progenitor cells; type: cell-based, human; details: Table 5, no drug 42 +/− 3
Mature Granulocyte = assay: 3H-thymidine killing of mature granulocyte bone marrow cells; type: cell-based, human; details: Table 5, no drug 48 +/− 3
Primitive BFU-E = assay: 3H-thymidine suicide assay of primitive BFU-E in adherent layer of human LTC (Table 7); type: cell-based; details: None: 48 +/− 4
Description: (§1) Primitive high proliferative potential colony forming cells (HHP-CFC) in an adherent layer in culture are usually in a quiescent state. This long term culture (LTC) is established seven to ten days after initiation of the LTC. The cells may be stimulated to proliferate by the addition of fresh medium. Both BFU-E (burst forming unit—erythroid precursor) cells and CFU-GM (colony forming unit—granulocyte-monocyte common precursor) cells of LTC may be maintained in a quiescent state by the mesenchymally derived stromal cells in an adherent layer, but can be reversibly stimulated into the cycle by the addition of fresh media. The ability of CXCR4 agonists such as SDF-1 and SDF-1 polypeptides to overcome this activation may be determined by adding it to the LTC during the medium change. Rapidly dividing cells will accumulate proportionally more of a cytotoxic agent, such as radioactive thymidine, and as a result are preferentially killed.
(§2) The results depicted in Table 7 illustrate the ability of SDF-1, and SDF-1(1-14)-(G)4-SDF-1(55-67)-Lys20/Glu24-cyclic amide (SEQ ID NO:809) and SDF-1(1-14)-(G)4-SDF-1(55-67) acid (SEQ ID NO:806) to repress the proliferation of clonogenic erythroid and granulopoitic progenitors (which differentiate into erythrocytes, platelets, monocytes/macrophages and neutrophils) in an in vitro LTC-IC (long-term culture-initiating cells) assay. […]

CXCR4 receptor = target: T1, CXCR4 receptor (Homo sapiens, UniProt P61073); assay: [Ca2+]i mobilization in fura-2,AM loaded THP-1 cells (FIG. 5, Table 6); type: cell-based; details: 1×10^6/ml
T1 construct: incubation of THP-1 cells with SDF-1; endogenous in cells; host or cells: THP-1 cells
Description: Fura-2,AM loaded THP-1 cells (1×10^6/ml) were stimulated with SDF-1, Compound A or Compound K at the concentrations indicated. The values represent the mean ± one S.D. of n=3 experiments.
Fura-2,AM loaded THP-1 cells (1×10^6/ml) were stimulated with native SDF-1 and the SDF-1 peptide analogs at the concentration of native SDF-1 concentration that gave the maximum [Ca^2+]1 stimulation (1 μM). The values represent the mean ± one S.D. of n=3 experiments.
This example illustrates the efficacy of SDF-1 and SDF-1 peptide analogs in mediating intracellular calcium mobilization ([Ca^2+]i). To illustrate that the binding of SDF-1 and SDF-1 peptide analogs results in the agonistic induction of the CXCR4 receptor, [Ca^2+]i mobilization assays were conducted, the results of which are shown in FIG. 5. To obtain the data shown in FIG. 5, fura-2,AM loaded THP-1 cells (1×10^6/ml) were stimulated with Compound A/SDF-1, SDF-1(1-14)-(G)4-SDF-1(55-67) Lys20/Glu24-cyclic amide (SEQ ID NO:809) or Compound K/SDF-1(1-14)-(G)4-SDF-1(55-67)-Glu24/Lys28-cyclic amide (SEQ ID NO:803) at the concentrations indicated (the values represent the mean ± one S.D. of n=3 experiments). […] The EC50 values (the concentration of ligand necessary to effectively induce 50% of the full [Ca^2+]i mobilization potential) for SDF-1(1-14)-(G)4-SDF-1(55-67) acid (SEQ ID NO:806), SDF-1(1-14)-(G)4-SDF-1(55-67)-Lys20/Glu24-cyclic amide (SEQ ID NO:809) or SDF-1(1-14)-(G)4-SDF-1(55-67)-Glu24/Lys28-cyclic amide (SEQ ID NO:803) and native SDF-1 is shown in Table 6: […]

Primitive CFU-GM = assay: 3H-thymidine suicide assay of primitive CFU-GM in adherent layer of human LTC (Table 7); type: cell-based; details: None: 44 +/− 3
Description: as §1, §2

T1 sequence (P61073 whole entry): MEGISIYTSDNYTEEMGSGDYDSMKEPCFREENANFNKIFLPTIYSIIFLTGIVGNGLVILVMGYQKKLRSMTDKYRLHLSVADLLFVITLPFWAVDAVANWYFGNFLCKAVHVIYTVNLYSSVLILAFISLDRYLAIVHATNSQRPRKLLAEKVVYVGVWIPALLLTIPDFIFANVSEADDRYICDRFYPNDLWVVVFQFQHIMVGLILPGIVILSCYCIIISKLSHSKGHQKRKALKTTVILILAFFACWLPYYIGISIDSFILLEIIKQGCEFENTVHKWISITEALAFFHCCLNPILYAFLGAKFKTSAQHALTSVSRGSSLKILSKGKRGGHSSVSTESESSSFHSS

## H2N-Lys-Pro-Val-Ser-Leu-Ser-Tyr-Arg-Ala-Pro-Phe-Arg-Phe-Phe-[Gly-Gly-Gly-Gly]-Leu-Lys-Trp-Ile-Gln-Glu-Tyr-Leu-Glu-Lys-Ala-Leu-Asn-NH2 (H-KPVSLSYRAPFRFFGGGGLKWIQEYLEKALN-NH2; also: cyclic bridge, places not given here) [Compound B]
[1]; 0 min
  Percentage of compound remaining in plasma: 100%
[1]; 5 min
  Percentage of compound remaining in plasma: 67%
[1]; 10 min
  Percentage of compound remaining in plasma: 56%
[1]; 20 min
  Percentage of compound remaining in plasma: 67%
[1]; 30 min
  Percentage of compound remaining in plasma: 56%
[1]; 60 min
  Percentage of compound remaining in plasma: 77%
[1]; 120 min
  Percentage of compound remaining in plasma: 52%
[1]; 240 min
  Percentage of compound remaining in plasma: 43%
[1]; 360 min
  Percentage of compound remaining in plasma: 26%
[1]; 420 min
  Percentage of compound remaining in plasma: 17%
[2]
  % CELL KILLED: −7 +/− 6%
[3]
  % CELL KILLED: −11 +/− 7%
Mature Granulocyte
  % CELL KILLED: 44 +/− 6%

## SDF-1(1-14)-(G)4-SDF-1(55-67) acid (KPVSLSYRCPCRFFGGGGLKWIQEYLEKALN-OH; cysteine pairing not given here) [Compound L]
Primitive BFU-E; 1 μg/ml
  % CELL KILLED after 3H-Thymidine: 24 +/− 6%
Primitive BFU-E; 10 μg/ml
  % CELL KILLED after 3H-Thymidine: 0 +/− 2%
CXCR4 receptor
  EC50: 188 nM
Primitive CFU-GM; 1 μg/ml
  % CELL KILLED after 3H-Thymidine: 22 +/− 7%
Primitive CFU-GM; 10 μg/ml
  % CELL KILLED after 3H-Thymidine: 0 +/− 0%

## SDF-1(1-14)-(Gly)4-SDF-1(55-67)-Glu24/Lys28-cyclic amide (KPVSLSYRCPCRFFGGGGLKWIQEYLEKALN; lactam 24-28; cysteine pairing not given here) [Compound K]
CXCR4 receptor
  EC50: 106 nM

## Stromal cell-derived factor-1 [SDF-1, reference compound]
CXCR4 receptor
  EC50: 26.6 nM
